Assay results from article PMC4336329 (PLoS ONE, 2015).
Screen size: about 310,000 compounds; about 14,000 (4.5%) showed an effect of 50% or more. Effects have a minus sign here. The list shows a part of the results.

These compounds were tested against human ether-à-go-go-related gene (hERG) potassium channel (human, UniProt Q12809) (assay: primary screen, population patch clamp on CHO cells stably expressing hERG).
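Note: peak tail current of the secondary pulse compared with the same well before compound.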

Sequence of human ether-à-go-go-related gene (hERG) potassium channel (Q12809 whole entry, looked up): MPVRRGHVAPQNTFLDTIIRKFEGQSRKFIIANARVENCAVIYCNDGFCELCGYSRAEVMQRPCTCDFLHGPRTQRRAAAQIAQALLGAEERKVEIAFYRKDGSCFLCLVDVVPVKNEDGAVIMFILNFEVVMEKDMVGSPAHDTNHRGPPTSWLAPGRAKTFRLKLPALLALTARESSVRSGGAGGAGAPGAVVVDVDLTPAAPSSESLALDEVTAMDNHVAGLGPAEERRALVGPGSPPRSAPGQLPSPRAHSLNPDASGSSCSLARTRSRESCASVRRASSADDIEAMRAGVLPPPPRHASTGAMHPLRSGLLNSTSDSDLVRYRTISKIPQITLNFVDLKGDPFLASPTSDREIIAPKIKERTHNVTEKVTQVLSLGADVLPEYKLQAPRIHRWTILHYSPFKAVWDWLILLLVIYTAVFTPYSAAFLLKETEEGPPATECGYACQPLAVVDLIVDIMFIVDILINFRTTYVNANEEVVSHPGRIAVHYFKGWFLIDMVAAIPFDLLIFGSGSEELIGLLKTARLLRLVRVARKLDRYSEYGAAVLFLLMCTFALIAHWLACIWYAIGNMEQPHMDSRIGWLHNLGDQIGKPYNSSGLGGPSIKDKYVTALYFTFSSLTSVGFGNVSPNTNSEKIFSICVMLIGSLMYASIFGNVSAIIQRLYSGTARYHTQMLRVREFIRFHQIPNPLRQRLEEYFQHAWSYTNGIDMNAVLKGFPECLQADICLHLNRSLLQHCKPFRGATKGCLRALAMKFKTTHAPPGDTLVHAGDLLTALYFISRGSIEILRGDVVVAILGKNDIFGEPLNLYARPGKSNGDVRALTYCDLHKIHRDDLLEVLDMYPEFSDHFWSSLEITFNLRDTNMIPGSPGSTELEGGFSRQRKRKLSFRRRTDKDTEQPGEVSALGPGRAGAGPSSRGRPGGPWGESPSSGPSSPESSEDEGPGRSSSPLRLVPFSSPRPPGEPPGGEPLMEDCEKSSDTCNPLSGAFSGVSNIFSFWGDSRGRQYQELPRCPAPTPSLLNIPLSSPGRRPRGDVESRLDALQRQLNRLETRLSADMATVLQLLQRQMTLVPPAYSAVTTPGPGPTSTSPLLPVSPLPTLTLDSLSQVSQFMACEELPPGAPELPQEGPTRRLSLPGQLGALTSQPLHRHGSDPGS

Compared with `COc1ccc(N(CC(=O)O)S(=O)(=O)c2c(C)n[nH]c2C)cc1`, `COc1ccc(OCC(=O)NNC(=O)C(=O)N2CCCC2)cc1` is higher in “hERG current change (%, negative = inhibition) at 10uM” value: -23.2% for the first, -3.91% for the second.

First: COC(=O)[C@@H]1CCCN1Cc1nc(Cc2ccc(OC)c(OC)c2)no1
Second: CCOC(=O)N1CCN(CC(O)COCc2ccc(OC)c(OC)c2)CC1.Cl (centres unmarked)
The “hERG current change (%, negative = inhibition) at 10uM” value of the first is higher: 3.64% for the first, -6.91% for the second.

Going from `Cl.NC(=NC1CCCCC1)c1ccc(Cl)cc1` to `Cc1ccc(S(=O)(=O)N2CCOCC2)cc1NC(=O)C(c1ccc(Cl)cc1)C(C)C` (centres unmarked), the “hERG current change (%, negative = inhibition) at 10uM” value rises from -39.2% to 1.8%.

First: O=C(N/N=C/c1cc2c(cc1Br)OCO2)c1cc2ccccc2o1
Second: CCN1CCN(C(CNC(=O)c2ccc3c(c2)OCO3)c2cccnc2)CC1 (centres unmarked)
The “hERG current change (%, negative = inhibition) at 10uM” value of the first is lower: -44.5% for the first, -17.9% for the second.

Going from `Oc1cccc2ccc(/C=C/c3cccs3)nc12` to `O=C(COc1cccc2cccnc12)Nc1ccccc1N1CCOCC1`, the “hERG current change (%, negative = inhibition) at 10uM” value falls from -14.4% to -37.7%.

Compared with `CC(C)(C)OC(=O)N1Cc2ccccc2C[C@H]1C(=O)NCC(=O)NCC1CCCO1` (some centres unmarked), `CS(=O)(=O)N1Cc2ccccc2CC1C(=O)O` (centres unmarked) is lower in “hERG current change (%, negative = inhibition) at 10uM” value: 18.7% for the first, 18% for the second.

Going from `CCOc1ccc(OCCC(=O)OCC(=O)NCc2ccccc2)cc1` to `CCOC(=O)C1(CCOc2ccccc2)CCN(Cc2ccc(OCC)c(CO)c2)CC1`, the “hERG current change (%, negative = inhibition) at 10uM” value falls from 21.9% to -79.5%.

First: FC(F)(F)c1ccccc1NC(=S)Nc1ccccc1
Second: C=CCNc1nc(Cl)nc(Nc2ccccc2)n1
The “hERG current change (%, negative = inhibition) at 10uM” value of the first is higher: 20.1% for the first, 1.99% for the second.

Going from `CC(C)C(=O)Nc1ccc(Cc2ccc(NC(=O)C(C)C)c(O)c2)cc1O` to `CCNC(=O)NC(=O)C(C)OC(=O)CCS(=O)(=O)c1ccc(C)cc1` (centres unmarked), the “hERG current change (%, negative = inhibition) at 10uM” value rises from -23% to 5.85%.

Going from `CN1CCC(N(C)C(=S)NC(=O)c2cc(-c3cccc(Br)c3)nc3ccccc23)CC1` to `CCCn1c(=O)c(C(=O)NNS(=O)(=O)c2ccc(C)cc2)c(O)c2ccccc21`, the “hERG current change (%, negative = inhibition) at 10uM” value rises from -15.3% to 1.26%.

First: Cc1cccnc1NC(=O)c1cccc(S(=O)(=O)N2CCN(c3ccc(F)cc3)CC2)c1
Second: Cc1cccc(-n2nc([N+](=O)[O-])c(N3CCN(C(=O)c4ccco4)CC3)[n+]2[O-])c1
The “hERG current change (%, negative = inhibition) at 10uM” value of the first is higher: -35.1% for the first, -68.7% for the second.

First: COc1ccc(CNC(=O)CN2C(=O)NC(C)(c3cccc4ccccc34)C2=O)cc1OC (centres unmarked)
Second: COc1ccc(-c2noc3c2-c2nc(-c4ccccc4)sc2CC3)cc1
The “hERG current change (%, negative = inhibition) at 10uM” value of the first is higher: 11.3% for the first, 10.5% for the second.

First: c1ccc(CSc2n[nH]c(-c3ccco3)n2)cc1
Second: O=C(OCc1cncs1)c1ccccc1
The “hERG current change (%, negative = inhibition) at 10uM” value of the first is lower: 3.87% for the first, 22.7% for the second.

First: CC(OC(=O)c1nc(Cl)ccc1Cl)C(=O)c1ccccc1 (centres unmarked)
Second: Cc1csc(NC(=O)Cc2ccccc2Cl)n1
The “hERG current change (%, negative = inhibition) at 10uM” value of the first is lower: 7.87% for the first, 21.4% for the second.

First: CCCCN(C(=O)c1c(CC)noc1C)c1c(N)n(CCC)c(=O)[nH]c1=O
Second: CCOCCCn1c(=S)[nH]c2cc(C(=O)N3CCC(C(N)=O)CC3)ccc2c1=O
The “hERG current change (%, negative = inhibition) at 10uM” value of the first is higher: 10.6% for the first, -8.7% for the second.

First: CCOC(=O)N1CCN(C(=O)CN(c2ccc(Cl)c(C(F)(F)F)c2)S(C)(=O)=O)CC1
Second: CCOC(=O)NNC(=O)CCn1c2c(c3ccccc31)CCCC2
The “hERG current change (%, negative = inhibition) at 10uM” value of the first is lower: -29.1% for the first, -16.4% for the second.

Compared with `Cc1ccc(C)c(OCC(=O)NCC(C)C)c1C`, `CC(C)OC(=O)CSc1nc2ncc(Cl)cc2[nH]1` is lower in “hERG current change (%, negative = inhibition) at 10uM” value: 11.1% for the first, 9.74% for the second.

Going from `C=CCn1c(SCCC(=O)O)nc2c1c(=O)n(C)c(=O)n2C` to `COCC(C)n1c(C)cc(C(=O)COC(=O)CN=C2NS(=O)(=O)c3ccccc32)c1C` (centres unmarked), the “hERG current change (%, negative = inhibition) at 10uM” value falls from 22.8% to 18.4%.

Going from `CCOc1ccc(S(=O)(=O)NN)cc1` to `Cc1ccc(S(=O)(=O)N2CCSC2C(=O)O)cc1` (centres unmarked), the “hERG current change (%, negative = inhibition) at 10uM” value falls from 5.45% to 1.52%.

First: CSc1ncccc1C(=O)Nc1ccc(F)c(F)c1F
Second: CC(=O)OCC(=O)Nc1ccc(SC(F)F)cc1
The “hERG current change (%, negative = inhibition) at 10uM” value of the first is higher: 15.6% for the first, -8.2% for the second.

Going from `O=C(CSc1nnc2ccc(-c3ccc(Br)cc3)nn12)NCC1CCCO1` (centres unmarked) to `Cc1cccc(N2CCN(Cc3nc(CC4CC4)no3)CC2)n1`, the “hERG current change (%, negative = inhibition) at 10uM” value rises from -43.3% to -11.2%.

First: O=C(Oc1cc(Cl)cc(Cl)c1)c1cnc2n(c1=O)CCS2
Second: COC(=O)c1ccc(CSc2n[nH]c(=S)s2)o1
The “hERG current change (%, negative = inhibition) at 10uM” value of the first is lower: -0.77% for the first, 16.3% for the second.
